{"source": "PubChem BioAssay AID504706", "about": "(National Center for Advancing Translational Sciences (NCATS), 2011)", "note": "Screen size: about 320,000 compounds; about 200 (0.062%) were called active. Inconclusive results, whose numbers are uncertain, are shown with a selection of clear calls. The call rests on the fitted dose curve; in most records, active means well fitted activation curve with a large enough effect; inconclusive means small, poorly fitted or top-dose-only effect; inactive means no such curve, though single readings can be large or run the other way. Potencies of inconclusive entries are left out as doubtful fits. Potency means the concentration at half of the fitted maximal effect; tags describe the fitted curve by direction and shape.", "data": [{"assay": "qHTS assay for re-activators of p53 using a Luc reporter; further: nearly all actives have a fitted effect of over 45% in size", "conditions": "H1299 p53-A138V BP100-luciferase reporter, luminescence, 24 h; series mostly up to 92.2 µM", "how_it_was_run": "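H1299 (p53-null), stable ts p53-A138V + BP100-Luc; 1000 cells/well, Opti-MEM/10% FBS; cpd 4 pt, 1:5; 24 h, 37 deg C, 5% CO2; detection reagent 10 min RT; luminescence.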", "values": [{"compound": "CN(C)CCCNC(=O)c1cc2sc3ccccc3c2s1", "Potency": "inactive"}, {"compound": "Cc1ccc(/C=C/C(=O)c2ccccc(=O)c2O)c(C)c1", "Potency": "inconclusive [activator, partial curve, poor fit]"}, {"compound": "CCc1ccc(C(=O)NCc2ccc(Cl)cc2)cc1", "Potency": "inconclusive [activator, full curve, poor fit]"}, {"compound": "Cc1ccccc1OCC(=O)NNC(=O)c1ccoc1C", "Potency": "inconclusive [activator, partial curve, poor fit]"}, {"compound": "CN(C)S(=O)(=O)N1CCC(Oc2ccc(C(=O)N3CCCCCCC3)cc2)CC1", "Potency": "inconclusive [activator, partial curve, poor fit]"}, {"compound": "COc1cccc(NC(=O)c2ccc3snnc3c2)c1", "Potency": "inconclusive [activator, partial curve, poor fit]"}, {"compound": "CC(C(=O)Nc1ccc2c(c1)OCCO2)n1nnc(-c2ccccc2)n1", "note": "(configuration not stated)", "Potency": "inactive"}, {"compound": "Cc1c(C(=O)O)cc(C(C)(C)C)n1CCSCCO", "Potency": "inconclusive [activator, single point]"}, {"compound": "COc1ccc(-c2cn(Cc3ccc(C(N)=O)cc3)c(-c3ccncc3)n2)cc1", "Potency": "inconclusive [activator, full curve, poor fit]"}, {"compound": "CCC(=O)Nc1nc2ccc(S(C)(=O)=O)cc2s1", "Potency": "inconclusive [activator, partial curve, poor fit]"}, {"compound": "CN(c1ccc(C(=O)Nc2cccnc2)cc1)S(=O)(=O)c1ccccc1", "Potency": "inactive"}, {"compound": "CC(=O)Nc1ccccc1C(=O)C(=O)Nc1ccc(C)c(F)c1", "Potency": "inconclusive [activator, partial curve, poor fit]"}, {"compound": "COc1ccc(C)cc1NC(=O)c1cc2ccccc2o1", "Potency": "inconclusive [activator, partial curve, poor fit]"}, {"compound": "O/N=C1\\CCCc2oc3c(c21)CCCC3", "Potency": "inconclusive [activator, single point]"}, {"compound": "COc1ccc(C(NC(C)=O)c2ccc3cccnc3c2O)c(OC)c1", "note": "(configuration not stated)", "Potency": "inconclusive [activator, partial curve, poor fit]"}, {"compound": "CC(=O)Nc1ccc(S(=O)(=O)NCCc2c[nH]c3ccc(C)cc23)cc1", "Potency": "inactive"}, {"compound": "Cc1cccc(NCc2ccccc2OCc2ccccc2F)c1", "Potency": "inconclusive [activator, full curve, poor fit]"}, {"compound": "CC(=O)Nc1ccc(C(=O)NCCc2ccccc2)cc1", "Potency": "inconclusive [activator, partial curve, poor fit]"}, {"compound": "COc1ccc(NC(=O)Nc2cccc(C)n2)cc1", "Potency": "inactive"}, {"compound": "CCOC(=O)[C@H]1[C@H]2COc3ccc(C)cc3[C@@H]2N2C(=O)c3cc(C)ccc3NC(=O)[C@@]12C", "Potency": "inactive"}, {"compound": "O=C(Nc1ncn[nH]1)c1ccc(Cl)c(S(=O)(=O)Nc2ccc(Cl)cc2)c1", "Potency": "inactive"}, {"compound": "Cc1ccc(S(=O)(=O)Cn2nnnc2C(c2ccccc2)N2CCN(c3ncccn3)CC2)cc1", "note": "(configuration not stated)", "Potency": "inactive"}, {"compound": "C/C(CC(=O)Nc1ccc(C)c(Cl)c1)=N\\NC(=O)c1ccco1", "Potency": "inconclusive [activator, partial curve, poor fit]"}, {"compound": "CC(C)(C)c1cc(NC(=O)C2CCCO2)no1", "note": "(configuration not stated)", "Potency": "inconclusive [activator, partial curve, poor fit]"}, {"compound": "Nc1c(C(=O)c2ccc(Cl)cc2)sc2nc3c(cc12)CCC3", "Potency": "inconclusive [activator, full curve, poor fit]"}, {"compound": "Brc1cc2c(cc1/C=N/Nc1nc(N3CCCCC3)nc(N3CCCCC3)n1)OCO2", "Potency": "inactive"}, {"compound": "O=C(CCCCl)Oc1ccc2cc(-c3ccc4ccccc4n3)c(=O)oc2c1", "Potency": "inconclusive [activator, full curve, poor fit]"}, {"compound": "Cc1ccc(NC(=O)c2ccccn2)c(Br)c1", "Potency": "inconclusive [activator, partial curve, poor fit]"}, {"compound": "C/C(Cn1cnc([N+](=O)[O-])n1)=N\\NC(=O)c1ccc(F)cc1", "Potency": "inconclusive [activator, partial curve]"}, {"compound": "O=c1cc(-c2ccco2)oc2ccc(Cl)cc12", "Potency": "inconclusive [activator, partial curve, poor fit]"}, {"compound": "CCOCCCn1c(=S)[nH]c2cc(C(=O)NCCc3ccccc3)ccc2c1=O", "Potency": "inconclusive [activator, partial curve, poor fit]"}, {"compound": "NC(=O)c1cccn(Cc2ccc(C(F)(F)F)cc2)c1=O", "Potency": "inactive"}, {"compound": "CC(CCc1ccccc1)NC(=O)C(=O)Nc1ccccc1", "note": "(configuration not stated)", "Potency": "inconclusive [activator, partial curve, poor fit]"}, {"compound": "O=C(Nc1cccc(Cl)c1)c1cccc(N2C(=O)C3CC=CCC3C2=O)c1", "note": "(configuration not stated)", "Potency": "inactive"}, {"compound": "CCOC(=O)c1ccccc1NC(=O)CSc1nc2ccccc2o1", "Potency": "inconclusive [activator, partial curve, poor fit]"}, {"compound": "CC[C@]1(c2ccccc2OC)ON(c2ccccc2C(F)(F)F)C1=O", "Potency": "inconclusive [activator, single point]"}, {"compound": "C/C(CC(C)C)=N\\NC(=O)Nc1ccccc1", "Potency": "inconclusive [activator, partial curve, poor fit]"}, {"compound": "CCCN1C(=O)c2ccc(C(=O)Nc3cc(C)on3)cc2C1=O", "Potency": "inactive"}, {"compound": "Cc1cccc(Nc2ccc([N+](=O)[O-])cc2C(=O)O)c1", "Potency": "inconclusive [activator, single point]"}, {"compound": "CC(C(=O)NC1C=CS(=O)(=O)C1)N1C(=O)/C(=C/c2ccc(Cl)cc2)SC1=S", "note": "(configuration not stated)", "Potency": "inconclusive [activator, single point]"}, {"compound": "O=C(NCC(=O)N1CCOCC1)c1ccc(Br)cc1", "Potency": "inconclusive [activator, partial curve, poor fit]"}, {"compound": "NS(=O)(=O)c1cccc(NC(=S)NC(=O)c2cccc([N+](=O)[O-])c2)c1", "Potency": "inconclusive [activator, partial curve, poor fit]"}, {"compound": "CCCCCc1nnc(NC(=O)Cn2cnc3ccccc3c2=O)s1", "Potency": "inconclusive [activator, full curve, poor fit]"}, {"compound": "O=C(NC(=S)Nc1cccc(Cl)c1N1CCCCC1)c1ccc2c(c1)OCCO2", "Potency": "inconclusive [activator, partial curve, poor fit]"}, {"compound": "O=C(N/N=C/c1sc(N2CCOCC2)nc1-c1ccccc1)c1ccccc1O", "Potency": "inactive"}, {"compound": "O=C(Nc1nc(-c2cccs2)cs1)c1ccc(Cl)s1", "Potency": "inconclusive [activator, partial curve, poor fit]"}, {"compound": "COc1ccc(/C=C/C(=O)Nc2cc(C)on2)cc1", "Potency": "inconclusive [activator, partial curve, poor fit]"}, {"compound": "Cc1cccc(C(=O)NNC(=O)/C=C/C(=O)O)c1", "Potency": "inconclusive [activator, partial curve, poor fit]"}, {"compound": "CCCCOc1ccc(CN(C)c2ncnc(N)n2)cc1", "Potency": "inconclusive [activator, single point]"}, {"compound": "Fc1cc(F)c2nc(Nc3nc4cc5c(cc4s3)OCO5)sc2c1", "Potency": "inconclusive [activator, partial curve, poor fit]"}, {"compound": "O=C(N/N=C\\c1ccccn1)c1ccccc1O", "Potency": "inconclusive [activator, partial curve, poor fit]"}, {"compound": "CCOc1cccc(/C=N/NC(=O)c2ccc3c(c2)OCCO3)c1O", "Potency": "inconclusive [activator, partial curve, poor fit]"}, {"compound": "O=C(Oc1c(Cl)cc(Cl)c2cccnc12)c1cccc([N+](=O)[O-])c1", "Potency": "inconclusive [activator, partial curve, poor fit]"}, {"compound": "Cc1ccc(-c2csc(NC(=O)C3=COCCO3)n2)cc1", "Potency": "inconclusive [activator, partial curve, poor fit]"}, {"compound": "CC(=O)c1ccc(NC(=O)CCCN2C(=O)/C(=C/C(C)=C/c3ccccc3)SC2=S)cc1", "Potency": "inconclusive [activator, full curve, poor fit]"}, {"compound": "C=CCNC(=S)NNC(=O)c1csc(CC)c1", "Potency": "inconclusive [activator, single point]"}, {"compound": "N#Cc1cc(S(=O)(=O)N2CCOCC2)ccc1N1CCOCC1", "Potency": "inconclusive [activator, single point]"}, {"compound": "O=C(NCc1nc2ccccc2[nH]1)c1ccc([N+](=O)[O-])cc1", "Potency": "inactive"}, {"compound": "COC(=O)c1ccc(Sc2ccc(Cl)cc2)c(N)c1", "Potency": "inconclusive [activator, single point]"}, {"compound": "Brc1ccc(-c2nnc(-c3ccco3)o2)cc1", "Potency": "inconclusive [activator, partial curve, poor fit]"}, {"compound": "COc1ccc(S(=O)(=O)N2CCN(C(=O)CNC(=O)c3ccc4c(c3)OCO4)CC2)cc1", "Potency": "inactive"}, {"compound": "Cc1cccc2sc(NNC(=O)c3cc(-c4cccs4)nc4ccccc34)nc12", "Potency": "inactive"}, {"compound": "OCC[n+]1ccc(/C=C/c2c[nH]c3ccccc23)cc1", "Potency": "inactive"}, {"compound": "Cc1nnc(NC(=O)C2CC(=O)N(c3ccc4c(c3)OCCO4)C2)s1", "note": "(configuration not stated)", "Potency": "inconclusive [activator, single point]"}, {"compound": "C=CCN1C(=O)C(CC(=O)O)S/C1=N/N=C/c1ccc(N(CC)CC)cc1", "note": "(configuration not stated)", "Potency": "inactive"}, {"compound": "O=[N+]([O-])c1ccc2nc(-c3ccncc3)[nH]c2c1", "Potency": "inactive"}, {"compound": "COc1ccc(CCC(=O)Nc2ccc(Br)cn2)cc1", "Potency": "inconclusive [activator, partial curve, poor fit]"}]}]}
